# Reference: the supplement of paper PMC8728848
# The other results are listed elsewhere or left out.
# Legend:
# Experiment in all cases: glycan array binding signal (z-score within array); higher = stronger binding
# Details in all cases: glycan notation: IUPAC condensed, linker removed
# Gal(b1-4)Glc = biological target: Gal(b1-4)Glc
# Outline: (§1)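 Glycan array data came from 3228 arrays in the Consortium for Functional Glycomics database, and only arrays with an available protein sequence were kept. Glycan names were put into IUPAC-condensed notation, and columns mapping to the same glycan were averaged. The binding signal is a within-array Z-score, averaged across arrays of one protein sequence run at different concentrations or buffers and across linkers. A negative Z-score can be read as non-binding.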
# Gal(b1-4)Glc6S = biological target: Gal(b1-4)Glc6S
# Outline: as §1
# Gal(b1-4)GlcNAc = biological target: Gal(b1-4)GlcNAc
# Outline: as §1
# [1] = biological target: Gal(b1-4)GlcNAc(a1-6)Gal(b1-4)GlcNAc
# Outline: as §1
# Gal(b1-4)GlcNAc(b1-2)Man = biological target: Gal(b1-4)GlcNAc(b1-2)Man
# Outline: as §1
# [2] = biological target: Gal(b1-4)GlcNAc(b1-2)Man(a1-3)Man(b1-4)GlcNAc(b1-4)GlcNAc
# Outline: as §1
# [3] = biological target: Gal(b1-4)GlcNAc(b1-2)Man(a1-3)[Gal(b1-4)GlcNAc(b1-2)Man(a1-6)]Man(b1-4)GlcNAc(b1-4)GlcNAc
# Outline: as §1
# [4] = biological target: Gal(b1-4)GlcNAc(b1-2)Man(a1-3)[Gal(b1-4)GlcNAc(b1-2)Man(a1-6)]Man(b1-4)GlcNAc(b1-4)[Fuc(a1-6)]GlcNAc
# Outline: as §1
# [5] = biological target: Gal(b1-4)GlcNAc(b1-2)Man(a1-3)[Gal(b1-4)GlcNAc(b1-2)Man(a1-6)][Gal(b1-4)GlcNAc(b1-4)]Man(b1-4)GlcNAc(b1-4)[Fuc(a1-6)]GlcNAc
# Outline: as §1
# [6] = biological target: Gal(b1-4)GlcNAc(b1-2)Man(a1-3)[Gal(b1-4)GlcNAc(b1-2)Man(a1-6)][GlcNAc(b1-4)]Man(b1-4)GlcNAc(b1-4)[Fuc(a1-6)]GlcNAc
# Outline: as §1
# [7] = biological target: Gal(b1-4)GlcNAc(b1-2)Man(a1-3)[GlcNAc(b1-2)Man(a1-6)]Man(b1-4)GlcNAc(b1-4)GlcNAc
# Outline: as §1
# [8] = biological target: Gal(b1-4)GlcNAc(b1-2)Man(a1-3)[GlcNAc(b1-4)][Gal(b1-4)GlcNAc(b1-2)Man(a1-6)]Man(b1-4)GlcNAc(b1-4)GlcNAc
# Outline: as §1
# [9] = biological target: Gal(b1-4)GlcNAc(b1-2)Man(a1-3)[Man(a1-6)]Man(b1-4)GlcNAc(b1-4)GlcNAc
# Outline: as §1
# [10] = biological target: Gal(b1-4)GlcNAc(b1-2)Man(a1-6)Man(b1-4)GlcNAc(b1-4)GlcNAc
# Outline: as §1
# [11] = biological target: Gal(b1-4)GlcNAc(b1-2)Man(a1-6)[GlcNAc(b1-2)Man(a1-3)]Man(b1-4)GlcNAc(b1-4)GlcNAc
# Outline: as §1
# [12] = biological target: Gal(b1-4)GlcNAc(b1-2)Man(a1-6)[Man(a1-3)]Man(b1-4)GlcNAc(b1-4)GlcNAc
# Outline: as §1
# [13] = biological target: Gal(b1-4)GlcNAc(b1-2)[Gal(b1-4)GlcNAc(b1-4)]Man(a1-3)[Gal(b1-4)GlcNAc(b1-2)Man(a1-6)]Man(b1-4)GlcNAc(b1-4)GlcNAc
# Outline: as §1
# [14] = biological target: Gal(b1-4)GlcNAc(b1-2)[Gal(b1-4)GlcNAc(b1-4)]Man(a1-3)[Gal(b1-4)GlcNAc(b1-2)[Gal(b1-4)GlcNAc(b1-6)]Man(a1-6)]Man(b1-4)GlcNAc(b1-4)GlcNAc
# Outline: as §1
# [15] = biological target: Gal(b1-4)GlcNAc(b1-2)[Gal(b1-4)GlcNAc(b1-4)]Man(a1-3)[GlcNAc(b1-4)][Gal(b1-4)GlcNAc(b1-2)Man(a1-6)]Man(b1-4)GlcNAc(b1-4)GlcNAc
# Outline: as §1
# [16] = biological target: Gal(b1-4)GlcNAc(b1-2)[Gal(b1-4)GlcNAc(b1-4)]Man(a1-3)[GlcNAc(b1-4)][Gal(b1-4)GlcNAc(b1-2)[Gal(b1-4)GlcNAc(b1-6)]Man(a1-6)]Man(b1-4)GlcNAc(b1-4)GlcNAc
# Outline: as §1
# [17] = biological target: Gal(b1-4)GlcNAc(b1-2)[Gal(b1-4)GlcNAc(b1-6)]Man(a1-6)[Gal(b1-4)GlcNAc(b1-2)Man(a1-3)]Man(b1-4)GlcNAc(b1-4)GlcNAc
# Outline: as §1
# [18] = biological target: Gal(b1-4)GlcNAc(b1-2)[Gal(b1-4)GlcNAc(b1-6)]Man(a1-6)[Gal(b1-4)GlcNAc(b1-2)Man(a1-3)]Man(b1-4)GlcNAc(b1-4)[Fuc(a1-6)]GlcNAc
# Outline: as §1
binder,measurement,setting,value
PX9937A-bvu-521-23-521 (Bacteroides vulgatus) (protein) LDLAPEDYYGAGNFWKEASQPKAFMLGLHAQLRSYYDMFYTLGELRGGTQRVGTSSLNTSLNYADIRSQNISEDIPGISNWNGLYSPIMQVNHFIQEVENGCTFLDDATRSRYLGQAYGMRALYYFMLYRTFGGVPLITKVDILDGKPSADKFYVERATPEATMEFIKADINKSENYFGNNTSFDAYDWSRYATLMLKAEIYMWAAKVSITGFTATGATDLQTAKTALSGIIGHFELMDNFASIFSCDNKKNTEIIFAMPFIEGEASNDGGRFLYQDAVFLGQAYGRNGKVIEKDTLNLKGTGGVFRDEYTEDFWKTFKEGDSRRDATFMEYYMKNDNGTLSEFGCVMKKRIGTINSNDNRIYISDIPVYRYADALLMMAEIENGLNNPCASYINEVRKRAYGDTFEENKYTEGSYAENELAILQERDKEFVSEGKRWFDVLRMHDASGRSLVFSANANYPGTNPILGTEEAYKMLWPVNIGTLNVNPLLTQTPGYGKK,glycan array binding signal (z-score),Gal(b1-4)Glc,-0.389
same,glycan array binding signal (z-score),Gal(b1-4)Glc6S,-0.351
same,glycan array binding signal (z-score),Gal(b1-4)GlcNAc,0.599
same,glycan array binding signal (z-score),[1],0.441
same,glycan array binding signal (z-score),Gal(b1-4)GlcNAc(b1-2)Man,-0.059
same,glycan array binding signal (z-score),[2],0.066
same,glycan array binding signal (z-score),[3],-0.294
same,glycan array binding signal (z-score),[4],0.343
same,glycan array binding signal (z-score),[5],0.144
same,glycan array binding signal (z-score),[6],-0.396
same,glycan array binding signal (z-score),[7],-0.327
same,glycan array binding signal (z-score),[8],-0.466
same,glycan array binding signal (z-score),[9],0.38
same,glycan array binding signal (z-score),[10],-0.439
same,glycan array binding signal (z-score),[11],-0.09
same,glycan array binding signal (z-score),[12],-0.508
same,glycan array binding signal (z-score),[13],-0.553
same,glycan array binding signal (z-score),[14],-0.374
same,glycan array binding signal (z-score),[15],-0.678
same,glycan array binding signal (z-score),[16],-0.312
same,glycan array binding signal (z-score),[17],4.26
same,glycan array binding signal (z-score),[18],0.374
